The structures appear in SMILES notation. Several values for one entry are separate records, joined by “and”; a condition that tells them apart may be missing. Equal entries are not always repeated. The campaign covered roughly 16,000 compounds. About 40 (0.2%) were called active. About 1% were inconclusive and are not listed. Calls come from the whole dose curve; as a rule, active = well fitted activation curve with a large enough effect; inconclusive = small, poorly fitted or top-dose-only effect, or another doubt; inactive = no such curve, though single readings can be large or run the other way. The list shows a part of the results.
% is set by controls: 0 for no effect and ±100 for the full control effect.

Sequence of UniProt Q8WZA2 (Q8WZA2 whole entry, looked up): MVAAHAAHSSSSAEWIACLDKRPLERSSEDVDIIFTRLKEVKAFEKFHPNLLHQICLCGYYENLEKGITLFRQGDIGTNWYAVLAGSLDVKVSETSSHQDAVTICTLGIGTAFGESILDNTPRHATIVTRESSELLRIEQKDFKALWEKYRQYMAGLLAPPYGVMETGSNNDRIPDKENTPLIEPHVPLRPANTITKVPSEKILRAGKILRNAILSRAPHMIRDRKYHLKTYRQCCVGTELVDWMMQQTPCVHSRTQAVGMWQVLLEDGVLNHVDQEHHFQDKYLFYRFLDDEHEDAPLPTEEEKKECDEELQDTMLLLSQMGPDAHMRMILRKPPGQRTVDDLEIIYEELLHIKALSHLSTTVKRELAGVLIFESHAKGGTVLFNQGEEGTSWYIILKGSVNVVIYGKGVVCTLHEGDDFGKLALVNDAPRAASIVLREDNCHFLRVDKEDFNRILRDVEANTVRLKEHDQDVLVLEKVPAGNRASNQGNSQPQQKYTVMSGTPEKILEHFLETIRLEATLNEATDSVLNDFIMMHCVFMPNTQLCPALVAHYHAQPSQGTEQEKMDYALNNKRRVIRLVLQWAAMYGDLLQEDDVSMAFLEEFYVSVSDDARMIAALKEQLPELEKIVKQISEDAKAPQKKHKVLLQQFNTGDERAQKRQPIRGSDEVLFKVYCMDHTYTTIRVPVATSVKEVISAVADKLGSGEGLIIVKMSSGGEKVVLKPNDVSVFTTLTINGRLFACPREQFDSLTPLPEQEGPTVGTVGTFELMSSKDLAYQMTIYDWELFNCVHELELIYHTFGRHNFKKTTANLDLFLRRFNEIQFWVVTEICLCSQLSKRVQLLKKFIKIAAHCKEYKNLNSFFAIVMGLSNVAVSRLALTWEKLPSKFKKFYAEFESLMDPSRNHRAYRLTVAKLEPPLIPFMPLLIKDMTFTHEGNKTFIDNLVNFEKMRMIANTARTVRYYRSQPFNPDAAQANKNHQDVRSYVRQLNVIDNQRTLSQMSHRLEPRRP

The target of the test is Rap guanine nucleotide exchange factor 4 (Homo sapiens) (UniProt Q8WZA2). In words: Validation qHTS for agonist of cAMP-regulated guanine nucleotide exchange factor 4 (EPAC2).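 Note: exchange makes BODIPY-GDP fluorescence drop when released from Rap1B; series mostly up to about 150 µM.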 Conditions: EPAC2 Rap1B BODIPY-GDP exchange, fluorescence; activation: active compounds read high. In short, it runs like this:
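Signal normalized against 6.5 mM cAMP as agonist control. Mix of EPAC2 (100 nM), RAP1B-BODIPY-GDP (250 nM) and GDP (50 uM) was read kinetically at 480/540 nm, every 5 min over 30 min, after 5 min room-temperature incubation with compound.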
In general terms: qHTS replaces the single test concentration by a dilution series.
Consider `Cc1csc[n+]1CCC1CCCCC1`, for which the activation is inactive: -13.4%.

With `CCOC(=O)c1cc(-c2ccccc2)nc2ccc(C)cc12`, the activation was inactive: -1.63%.

On to `O=c1c(-c2ccc(F)cc2)nc2cnc(N3CCOCC3)nc2n1Cc1ccc(F)cc1`, for which the activation is inactive: 5.59%.

Take `CCCCC[C@H](CC(=O)NO)C(=O)N[C@H](C(=O)N1CCC[C@H]1CO)C(C)C`: the activation was inactive: -24.6%.

As for `Cc1nn(C)cc1CN1CCOc2ccc(C(C)(O)COc3ccccc3)cc2C1` (centres undefined), the activation is inactive: 3.09%.

Turning to `COc1ccccc1CN1CCOc2ccc(CN3CCC(Oc4cccnc4)CC3)cc2C1`, the activation is inactive: -10.9%.

On to `Cc1ccc(O)c([C@H](CCN(C(C)C)C(C)C)c2ccccc2)c1`, for which the activation was inactive: 12.6%.

As to `Cc1nc(N=Nc2ccc(S(=O)(=O)O)cc2S(=O)(=O)O)c(COP(=O)(O)O)c(C=O)c1O`, the activation is inactive: -16.3% and inactive: 4.24% and inactive: -28.5%.

Consider `COc1cccc(Cn2c(=O)c(-c3ccc(F)cc3)nc3cnc(N4CCOCC4)nc32)c1`, for which the activation is inactive: 1.98%.

As for `COc1ccc2[nH]cc(CCNc3ncncc3-c3ccc4c(c3)OCO4)c2c1`, the activation is inactive: -13.2%.

Take `C=CCc1ccccc1OCC(O)CNC(C)C` (centres undefined): the activation was inactive: -5.01% and inactive: -9.93% and inactive: -2.71%.

For `Oc1c(Cl)cc(Cl)cc1Sc1cc(Cl)cc(Cl)c1O`, the activation is inactive: -20.9% and inactive: -9.87%.

For the molecule `CCCCOc1ccc(CC(=O)NO)cc1`, the activation is inactive: -5.18% and inactive: 0.888%.

`CC(=O)OC(C)C[N+](C)(C)C` (centres undefined): the activation was inactive: 2.61% and inactive: -4.44% and inactive: -5.84%.

`CN(C)c1ccc(/C=C2\C(=O)Nc3ccccc32)cc1`: the activation is inactive: 4.11% and inactive: -30.5%.

Consider `O=c1cc(-c2cccc(O)c2)oc2c(O)c(O)ccc12`, for which the activation was inactive: -9.2%.

Consider `CS(=O)(=O)Nc1cccc(-c2nc(-n3ccnc3)c3ccccc3n2)c1`, for which the activation is inactive: -22.9%.

As to `O=S1(=O)[C@H]2C[C@@H]3C=C[C@@]2(CN1Cc1cccc(C(F)(F)F)c1)O3`, the activation is inactive: -23%.

As to `CO[C@@H]1[C@@H](OC)[C@H](C)[C@@](O)(CC(=O)O)O[C@H]1[C@H](C)[C@H]1O[C@@]2(CC[C@@](C)([C@H]3CC[C@@](C)([C@@H]4O[C@@H]([C@H]5O[C@](C)(O)[C@H](C)C[C@@H]5C)C[C@@H]4OC4C[C@H](OC)[C@@H](OC)[C@H](C)O4)O3)O2)C[C@H](O)[C@H]1C` (some centres undefined), the activation was inactive: -20.2%.

With `COc1ccccc1N1CCN(CC2CN3C(=O)N(C)c4ccccc4C3=N2)CC1` (centres undefined), the activation is inactive: -2.65%.

For the molecule `CN(CC1COCCO1)C(=O)c1cnn(-c2ncc3c(n2)-c2ccccc2CCC3)c1C1CC1` (centres undefined), the activation is inactive: -9.57%.

With `CNc1ccc(/C=C2\C=Cc3ccccc32)cc1`, the activation is inactive: -17.7%.

For the molecule `CCCCCCCCCCCCCCCCO`, the activation was inactive: -11%.

`CO/N=C(\C(=O)N[C@@H]1C(=O)N2C(C(=O)O)=C(CSc3nc(C)c(CC(=O)O)s3)CS[C@H]12)c1csc(N)n1`: the activation was inactive: -12.7%.

Consider `CC(=O)Nc1cc(C(=O)N2CCc3c(Cl)cccc3C2)cc2ncn(CCc3ccccn3)c12`, for which the activation is inactive: -4.5%.

Regarding `CCN1/C(=C/C(C)=O)Sc2ccc(OC)cc21`, the activation was inactive: -15.5%.

In the case of `Cc1noc(C)c1-c1ccc2ncnc(Nc3ccccc3)c2c1`, the activation is inactive: -18.7%.

In the case of `C[C@H]1c2cccc(O)c2C(O)=C2C(=O)[C@]3(O)C(O)=C(C(N)=O)C(=O)[C@@H](N(C)C)[C@@H]3[C@@H](O)[C@@H]21`, the activation is inactive: -3.57% and inactive: -33.6%.

Turning to `CC(=O)Oc1ccc(/C=C/C(=O)CC2OC(Oc3cc(OC(C)=O)c4c(c3)O[C@@H](c3ccc(OC(C)=O)cc3)CC4=O)C(OC(C)=O)C(OC(C)=O)C2OC(C)=O)cc1` (some centres undefined), the activation was inactive: -7.37%.

In the case of `CNC(=O)[C@@H]1C[C@H](Sc2nc3ccccc3[nH]2)CN1Cc1ccccc1C(F)(F)F`, the activation was inactive: -3.55%.

Take `Cc1c(CC(C)(C)C(=O)O)n(Cc2ccc(Cl)cc2)c2ccc(F)cc12`: the activation was inactive: -20.9%.

Regarding `COC(=O)C1CCCCN1Cc1ccc2c(c1)CN(Cc1cnn(-c3ccccc3)c1)CCO2` (centres undefined), the activation was inactive: -1.9%.

Consider `Cc1cnc(CNc2nc(-c3ccoc3)nc3ccccc23)cn1`, for which the activation is inactive: 2.28%.

As for `N=S(=O)(O)Cc1noc2ccccc12`, the activation was inactive: -26.5%.

For the molecule `COc1ccnc(CS(=O)c2nc3cc(OC(F)F)ccc3[nH]2)c1OC` (centres undefined), the activation was inactive: -15.3%.

On to `COc1ccc(/C=C\C(=O)Nc2ccccc2C(=O)O)cc1OC`, for which the activation is inactive: -7.79%.

As to `CC(=O)c1ccc2c(c1)N(CCCN1CCN(CCO)CC1)c1ccccc1S2`, the activation is inactive: 8.14%.

In the case of `COc1cc2oc(-c3ccccc3)cc(=O)c2cc1O`, the activation was inactive: -4.83%.

Regarding `O=C(Oc1ccccc1)N1CCC2(CC1)CCN(c1ncccn1)CC2`, the activation was inactive: -27.1%.

For the molecule `Cc1c(C(=O)NCC2CC2)sc2ncnc(NCCN3CCCCC3)c12`, the activation is inactive: -16.7%.

For the molecule `Clc1ccc2ncnc(NCc3ccc4c(c3)OCO4)c2c1`, the activation is inactive: 3.21%.

Turning to `COc1cccc(C2(CC(=O)N3CCN(c4ccccc4O)CC3)CC(=O)N(C3CCCC3)C2=O)c1` (centres undefined), the activation is inactive: -7.37%.

Regarding `CS(=O)(=O)Nc1cccc(-c2nccc(Nc3ccc(F)cc3)n2)c1`, the activation is inactive: -13.4%.

Turning to `Cc1cc(C)c2c(n1)NCCC2`, the activation was inactive: -14.5%.

For `CCCCC1CN(CCNC(=O)c2ccccn2)Cc2ccccc2O1` (centres undefined), the activation was inactive: -0.47%.

For `Cc1cccc(CNc2nc(-c3cccnc3)nc3ccccc23)c1`, the activation was inactive: -9.76%.

Turning to `CCCN1CCC(=O)N([C@H](CSc2ccccc2)Cc2ccccc2)CC1`, the activation is inactive: -27%.

Consider `O=c1c(O)c(-c2ccccc2)oc2cc(O)cc(O)c12`, for which the activation was inactive: -34.8%.

Regarding `O=C(O)c1cc(=O)c2c(OCC(O)COc3cccc4oc(C(=O)O)cc(=O)c34)cccc2o1`, the activation is inactive: -0.18% and inactive: -0.933%.

In the case of `c1ccc(CNc2ncnc3ccc(-c4ccc5c(c4)OCO5)cc23)cc1`, the activation was inactive: 6.46%.

Turning to `CNCCC(Oc1ccccc1C)c1ccccc1` (centres undefined), the activation is inactive: 11.5%.

Turning to `COCCNc1ccnc(-c2ccccc2CN(C)C)n1`, the activation was inactive: -15.4%.

On to `COc1cc2c(cc1OC)C1N(CC2)C(=O)CCC12C(=O)CCCC2=O` (centres undefined), for which the activation was inactive: -19.2%.

Turning to `COc1cccc(Cn2c(=O)c(-c3cccc(F)c3)nc3cncnc32)c1`, the activation is inactive: 3.46%.

For the molecule `CC(C)C[C@@H](CN=[N+]=[N-])N1CCN(C)CCC1=O`, the activation was inactive: -10.8%.

With `COc1cccc(Cn2c(=O)cnc3cnc(N4CCOCC4)nc32)c1`, the activation was inactive: 1.34%.

For `O=C(c1cccc(F)c1)N1CCC2(CC1)CCN(c1ccccn1)CC2`, the activation is inactive: -10.1%.

For `COCCn1c(=O)c(-c2ccc(Cl)cc2)nc2cnc(Oc3ccc(OC)cc3)nc21`, the activation was inactive: -10.7%.

`COc1ncc2nc(C)c(=O)n(Cc3ccc(F)cc3)c2n1`: the activation was inactive: -3.86%.

As to `Cc1cnc(CNc2ncnc3ccc(-c4cccc(C#N)c4)cc23)cn1`, the activation was inactive: -8.78%.

For `OCC1OC(n2cnc3c(Cl)nc(Cl)nc32)C(O)C1O` (centres undefined), the activation is inactive: -15.7%.

On to `CNc1ncncc1-c1ccccc1CN(C)C`, for which the activation was inactive: -15.3%.

As for `CS(=O)(=O)N1CCC2(CC1)CN(c1ccccn1)C2`, the activation is inactive: -15.3%.

`Oc1cc(-c2nc3ccccc3s2)cc2c1OCCN(Cc1cn[nH]c1-c1ccc(Cl)cc1)C2`: the activation is inactive: -7.25%.

Regarding `N#Cc1ccccc1-c1ccc2ncnc(NCc3cccs3)c2c1`, the activation is inactive: -20.5%.

Consider `O[C@@H]1CO[C@H]2[C@@H]1OC[C@@H]2O`, for which the activation was inactive: -6.56%.

With `Cc1cc(-n2nc3ccc(Cl)cc3n2)c(O)c(C(C)(C)C)c1`, the activation was inactive: 6.12%.

Turning to `O=C([C@@H]1C[C@@H](Sc2nc3ccccc3[nH]2)CN1Cc1ccc(Cl)cc1)N1CCN(c2ccccc2F)CC1`, the activation is inactive: -11%.

With `COc1ccc(C(=O)N2CCC3(CCCN(Cc4nccs4)C3)CC2)cc1`, the activation is inactive: -5.49%.

In the case of `COc1c(O)cc2c(c1O)C1OC(CO)C(O)[C@H](O)[C@H]1OC2=O` (some centres undefined), the activation is inactive: 6.42%.

As for `COc1cc(=O)n2c(c1C(=O)NCc1ccco1)CCN(Cc1c(F)cccc1F)CC2`, the activation is inactive: -10.6%.

In the case of `CCn1c(-c2ccccc2F)nc2cc(NC(C)=O)cc(C(=O)NCc3ncc(C)[nH]3)c21`, the activation was inactive: -9.68%.

In the case of `C[N+]1(C)CC(O)[C@H](C(=O)[O-])C1` (some centres undefined), the activation is inactive: -7.26%.

As to `Clc1ccc2nc[nH]c2c1`, the activation is inactive: -17.1%.

On to `COc1cc(-c2noc(C)c2C#CCO)cc(OC)c1OC`, for which the activation was inactive: -23.8%.

As to `CCSc1ccc2c(c1)N(CCCN1CCN(C)CC1)c1ccccc1S2`, the activation was inactive: -4.82%.

Take `O=C(c1csnn1)N1CCC2(CCCN(c3ccccc3)C2)CC1`: the activation is inactive: 4.94%.

As for `Cc1c(O)cccc1C(=O)N[C@@H](CSc1ccccc1)[C@H](O)CN1C[C@H]2CCCC[C@H]2C[C@H]1C(=O)NC(C)(C)C`, the activation is inactive: -19.2%.

`COc1ccc(NC(=O)N2CC[C@@]3(CCCN(C(=O)c4ccncc4)C3)C2)cc1`: the activation is inactive: -21.2%.

Regarding `CC(=O)ON(C(C)=O)c1ccc(/C=C2/C=Cc3ccccc32)cc1`, the activation was inactive: 2.34%.

Regarding `CNc1nc(-c2ccccc2Cl)nc2ccccc12`, the activation was inactive: -2.34%.

On to `CN(C)C(=O)c1ccc(-c2cc(-n3ccnc3)ncn2)cc1`, for which the activation is inactive: -11.2%.

Consider `C[C@H]1C[C@]2(O[C@@H]2C)C(=O)O[C@@H]2CCN(C)C/C=C(/COC(=O)[C@]1(C)O)C2=O`, for which the activation was inactive: -5.13%.

As for `CN(C)CCC(c1ccccc1)c1ccccn1` (centres undefined), the activation is inactive: -16.4% and inactive: -1.48% and inactive: -14.2%.

For the origin of these results see PubChem BioAssay AID1645887 (National Center for Advancing Translational Sciences (NCATS), 2021).
